Consider 70 compounds from PubChem BioAssay AID488969 (Vanderbilt High Throughput Screening Facility, 2010).

Whole data set: some 110,000 compounds, median “z-score” near -0.1, cut for the highest 2% near 2. The list shows a part of the results.

The experiment addresses Metabotropic glutamate receptor 8 (Rattus norvegicus) (UniProt P70579). Nature of the experiment: rat mGluR8 modulators via GIRK flux, primary screen, cell-based, thallium flux, HTS (AID 488969). The conditions noted are these: HEK293 rat mGluR8, GIRK (G protein-gated inwardly rectifying potassium channel) thallium flux, FluoZin2; at 10 µM; stronger effect = higher value; submaximal glutamate (EC20) added with thallium.
UniProt P70579, sequence (P70579 whole entry, looked up): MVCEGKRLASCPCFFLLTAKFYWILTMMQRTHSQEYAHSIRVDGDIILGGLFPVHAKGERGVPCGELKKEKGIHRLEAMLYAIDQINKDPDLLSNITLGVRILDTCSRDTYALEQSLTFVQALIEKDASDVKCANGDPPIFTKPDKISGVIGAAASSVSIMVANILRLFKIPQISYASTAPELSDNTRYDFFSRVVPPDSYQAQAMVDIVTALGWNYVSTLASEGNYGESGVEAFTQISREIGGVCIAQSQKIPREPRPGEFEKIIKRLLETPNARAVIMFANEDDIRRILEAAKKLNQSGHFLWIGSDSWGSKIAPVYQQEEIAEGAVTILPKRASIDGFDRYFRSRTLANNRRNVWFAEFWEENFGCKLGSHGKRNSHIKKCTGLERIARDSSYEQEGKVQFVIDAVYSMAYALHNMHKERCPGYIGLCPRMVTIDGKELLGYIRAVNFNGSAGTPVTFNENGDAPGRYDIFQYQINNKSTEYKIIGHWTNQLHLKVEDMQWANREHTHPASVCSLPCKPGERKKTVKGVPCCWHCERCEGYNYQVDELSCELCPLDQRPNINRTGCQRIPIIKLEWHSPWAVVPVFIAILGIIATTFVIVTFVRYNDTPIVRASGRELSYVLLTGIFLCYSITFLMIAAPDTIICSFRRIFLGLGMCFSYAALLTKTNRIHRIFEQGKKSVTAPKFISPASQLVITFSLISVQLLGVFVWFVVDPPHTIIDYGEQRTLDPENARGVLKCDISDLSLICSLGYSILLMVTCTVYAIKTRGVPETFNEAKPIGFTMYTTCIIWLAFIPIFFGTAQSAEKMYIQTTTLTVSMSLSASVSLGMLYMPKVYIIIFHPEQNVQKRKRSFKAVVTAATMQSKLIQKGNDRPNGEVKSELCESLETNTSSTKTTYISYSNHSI
As for `O=C1N/C(=N\N=C\c2cccs2)SC1Cc1cccc(Cl)c1` (stereo not given), the z-score was -0.183.

`C=CCc1ccccc1OCC(O)CN(C(C)C)C(C)C` (stereo not given) had a z-score of 0.467.

The compound `N=c1n(CCN2CCCCC2)c2ccccc2n1CC(O)COc1ccccc1` (stereo not given) yielded a z-score of 1.11.

With `O=C(/C=C/c1cn(CC(O)CN2CCCCCC2)c2ccccc12)c1cccs1` (stereo not given), the z-score was -0.724.

For `Cc1ccc(NC(=O)c2ccccc2-c2ccc(C(F)(F)F)cc2)cc1S(=O)(=O)N1CCOCC1`, the z-score stood at 0.431.

`CCCNS(=O)(=O)c1ccc(OCC(=O)OC)cc1`: the z-score was -0.126.

`Cc1cc(C(=O)CSc2nc3ccccc3[nH]2)c(C)n1C`: the z-score was -0.063.

For the compound `Cc1cc(C)cc(N(C(=O)c2nsc(Cl)c2Cl)C(C(=O)NC2CCCC2)c2ccc(O)cc2)c1` (stereo not given), the z-score was -0.0535.

Turning to `O=C(CSc1nc(SCC(=O)NCc2ccccc2)n(-c2ccccc2)n1)NCc1ccccc1`, the z-score is -0.236.

In the case of `CCOC(=O)/C(=N/Nc1ccc(Cl)cc1)S(=O)(=O)c1ccccc1`, the z-score was -0.198.

As for `Cc1nn(C(C)C(=O)O)c(=O)c2c1sc1ccccc12` (stereo not given), the z-score is -0.395.

Consider `CSc1nc(N)nc(SCC(=O)c2ccc(C)cc2)c1C#N`, for which the z-score is -0.147.

For `O=C(Nc1ccccn1)c1ccc([N+](=O)[O-])o1`, the z-score was -0.0759.

Turning to `CCOC(=O)c1ccc(NC(=O)CC2C(=O)N(c3ccccc3)C(=O)N2CCCOC)cc1` (stereo not given), the z-score is -0.493.

The compound `CC(C)(NO)/C(=N\O)c1ccc(Cl)cc1` had a z-score of 0.0275.

`CCOC(=O)c1nn(-c2ccc(Cl)cc2)c2nc(-c3ccc(C)cc3)c(C#N)c(=O)n12` had a z-score of 0.000659.

`CCOC(=O)C1=C(C)N(C)C(C)=C(C(=O)OCC)C1c1ccncc1` yielded a z-score of 0.0979.

`O=C(O)c1[nH]c2ccccc2c1NS(=O)(=O)Cc1ccccc1` came in with a z-score of 0.317.

For the compound `CSCCC(NS(=O)(=O)c1ccc(Cl)cc1)C(=O)OCC(=O)N1CCCc2ccccc21` (stereo not given), the z-score was -0.3.

`CCC1(C)CC(CCNS(=O)(=O)c2ccc(C)cc2)(c2ccc(C)cc2)CCO1` (stereo not given): the z-score was -0.421.

The compound `Fc1ccccc1COc1ccccc1CNCc1ccncc1` displayed a z-score of 0.0916.

`CC(=Nc1ccccc1)c1sc2ccccc2c1O` gave a z-score of 1.15.

Consider `COC(=O)COc1ccc(S(=O)(=O)Nc2ccc(C(N)=O)cc2)cc1C`, for which the z-score came out at 0.213.

Compound `COCCCn1c(SCC(=O)Nc2ccccc2)nnc1-c1ccncc1` registered a z-score of 0.407.

In the case of `COc1cc(CN(C)C(C)C(=O)Nc2ccc([N+](=O)[O-])cc2Cl)ccc1OC(F)F` (stereo not given), the z-score is -0.445.

For the compound `CC(=O)c1ccc(OCC(O)CN2CCN(CCN3C(=O)c4cccc5cccc(c45)C3=O)CC2)cc1` (stereo not given), the z-score is -0.766.

The compound `CC(C)NC(=O)c1cnn2c1NC(c1cccs1)CC2C(F)(F)F` (stereo not given) had a z-score of 0.0459.

As to `O=C(OCC(=O)N1CCCC1)c1ccccc1OCc1ccccc1`, the z-score is -0.212.

As for `COC(=O)CNc1nc(OC)nc(N(C)C)n1`, the z-score was 0.391.

In turn, `CCC(=O)N1CCN(C(=O)CC)C1c1ccccc1` yielded a z-score of 0.224.

Regarding `CCN1CCN(CCNC(=O)C2CCCN(Cc3nc(-c4cccc(Cl)c4)oc3C)C2)CC1` (stereo not given), the z-score is -0.134.

In the case of `O=C1CN(C(=O)c2ccc(Br)o2)C(c2ccccc2)c2cc(Cl)ccc2N1` (stereo not given), the z-score was -0.83.

Turning to `O=C(c1cccs1)N1N=C(c2ccccc2)CC1c1ccccc1` (stereo not given), the z-score was -0.101.

In turn, `c1ccc2c(CN3CCCCC3)csc2c1` registered a z-score of 0.275.

Regarding `CCc1[nH]nc2c1C(c1ccsc1)C(C#N)=C(N)O2` (stereo not given), the z-score is -0.447.

Take `CCOc1cc(CNC2CCCC2)cc(Cl)c1OCc1ccccc1`: the z-score is 1.32.

For `O=C(NC1CCCC1)C1C2C=CC(C2)C1C(=O)N1CCOCC1` (stereo not given), the z-score is -0.0834.

`CCOc1ccc(Cl)cc1CNCCNCC(C)O` (stereo not given) displayed a z-score of 2.17.

In turn, `Cc1cccc(NC(=O)NCCc2c[nH]c3ccccc23)c1` yielded a z-score of 0.555.

Turning to `COc1ccc(OC)c(N(CC(=O)NCCSc2ccccc2)S(C)(=O)=O)c1`, the z-score was 0.337.

As for `Cc1snc(SCC(=O)c2ccc(Cl)cc2)c1C#N`, the z-score was -0.288.

Take `Cn1c(/C=C/N2CCOCC2)c(C(=O)c2ccc(Br)cc2)c(=O)n(C)c1=O`: the z-score came out at 0.29.

Consider `CCOC(=O)COc1ccc(Br)cc1/C=C\c1[nH]c(=O)[nH]c(=O)c1[N+](=O)[O-]`, for which the z-score is -0.177.

As for `CC(C)(C)NC(=O)COC(=O)c1cc(Br)ccc1Cl`, the z-score was -0.0444.

`CCC1(C(=O)O)NC(c2cc(OC)ccc2O)C2C(=O)N(Cc3ccccc3)C(=O)C21` (stereo not given) displayed a z-score of 1.21.

`Cc1cc(C)c(C#N)c(SCC(=O)NC2CC2)n1`: the z-score was -0.163.

`CC1CCCCN1c1cc(C#N)c(C#N)cc1[N+](=O)[O-]` (stereo not given): the z-score was found to be 0.23.

`Cc1ccccc1C(=O)N1CCc2cc(-c3nc(NC(=O)Cc4ccc5c(c4)OCO5)sc3C)ccc21`: the z-score was -0.101.

As to `CCOC(=O)C1CCCN(Cc2nc(N)nc(Nc3ccc(OC)cc3)n2)C1` (stereo not given), the z-score came to 0.0187.

As to `CCOC(=O)C1CCN(S(=O)(=O)c2ccc(-c3nc4ccccc4s3)s2)CC1`, the z-score amounted to 0.833.

`O=C(NNC(=S)Nc1ccc(Cl)cc1Cl)c1ccc(N2CCOCC2)c([N+](=O)[O-])c1` had a z-score of 0.0331.

`O=C(CSc1cn(CCNC(=O)c2ccc3ccccc3c2)c2ccccc12)NCc1ccco1` returned a z-score of 0.305.

`O=C(Nc1ccc2c(c1)OCO2)c1cccc(F)c1`: the z-score was -0.0537.

Regarding `O=S(=O)(c1ccccc1)N1CCN(c2nnnn2-c2ccccc2)CC1`, the z-score is -0.524.

Consider `CC(=O)NCc1cn2c(C)csc2n1`, for which the z-score was 0.79.

Compound `O=C1CCCN1C(=O)CCC(=O)N1CCCC1=O` returned a z-score of 0.606.

`O=[N+]([O-])c1ccc(-c2nnc(CSc3nc(-c4ccccc4)nc4ccc(F)cc34)o2)cc1` had a z-score of 0.0904.

As for `COc1cc(OC)cc(-c2nnc(SCC(=O)NCc3cccs3)o2)c1`, the z-score was -0.202.

With `COc1ccc(NS(=O)(=O)c2ccc(N3CCOCC3)c(NC(=O)c3ccc(OC)cc3)c2)cc1`, the z-score was -0.352.

Turning to `Cc1cc2ccccc2n2c(SCC(=O)N3CCc4ccccc4C3)nnc12`, the z-score turned out to be 0.115.

As to `O=C(CN1CCCCC1)Nc1cccc(-n2cnnn2)c1`, the z-score was 1.36.

For `COc1ccc(OCc2nnc(SCC(N)=O)n2N)cc1`, the z-score is -0.141.

As to `COc1ccccc1Cn1c(CCCO)nc2ccccc21`, the z-score stood at 0.503.

`O=C(CCSc1ccccc1)NCc1cccnc1`: the z-score was -0.109.

As for `COc1ccc(/C=N/Nc2nc3ccccc3o2)cc1OC`, the z-score is -0.0972.

In the case of `CCn1cc(CNC(=O)c2ccc(Cl)c([N+](=O)[O-])c2)c(C)n1`, the z-score is -0.0712.

For `C=CCNc1nc(N)c(C(=O)Nc2cc(C)on2)s1`, the z-score amounted to 0.122.

As to `COc1ccc(Cn2c(C)c(C)c(C#N)c2NC(=O)Nc2cccc(C)c2)cc1`, the z-score was -0.0908.

In the case of `Cc1ccc(SCCN2C(=O)NC(C)(C)C2=O)cc1`, the z-score came to 0.0729.

Consider `O=C(Nc1nc2ccc(S(=O)(=O)N3CCCCC3)cc2s1)c1ccncc1`, for which the z-score is 0.331.
